Lines with a small IC50 respond at low doses; where the fit passes the top or lowest dose, that dose stands as a limit. AUC is the area under the same curve over the 256-fold range up to the top dose, as a fraction: 1 means no effect, lower means more sensitive. For some of these results: The top dose, if marked as inferred, is not printed in the source and was worked back from the curve model. For some of these results: Drugs with an entry number were screened twice under separate entries, and the two screens often disagree.

Experiment in all cases: Viability of human cancer cell lines after 72 h of drug (GDSC screen)
Compound in one assay: C#Cc1cccc(Nc2ncnc3cc(OC)c(OCCCCCCC(=O)NO)cc23)c1 [CUDC-101]
The settings on record: top dose 5.12 µM; top dose inferred. How it is done:
(§1)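 Human cancer cell lines in 384-well plates, medium with 10% serum, drug for 72 h over a 256-fold dose range (nine 2-fold or five 4-fold steps up to the top dose). Adherent lines were fixed and stained with the nucleic acid dye Syto60, suspension lines read with resazurin; signal relative to control wells, capped at 0 and 100%. One two-parameter sigmoid per drug and line, fitted in a mixed model over all curves with the slope shared within a line.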

Compound in the next assay: NCC(=O)Nc1ccc(-n2nc(C(F)(F)F)cc2-c2ccc3c(ccc4ccccc43)c2)cc1 [OSU-03012]
The settings on record: top dose 16 µM; top dose inferred. How it is done: as §1

Compound in the next assay: Fc1cc(-c2ccnc(Nc3ccc(-n4cnc(N5CCOCC5)n4)cc3)n2)cc(N2CCOCC2)c1 [JNK-9L]
The conditions noted are these: top dose 5.12 µM; top dose inferred. How it is done:
as §1

Compound in another assay: O=c1[nH]cc(F)c(=O)[nH]1 [5-Fluorouracil]
The conditions noted are these: top dose 32 µM; top dose inferred. How it is done:
as §1

Compound in a further assay: COc1cc(F)c(F)c(Nc2ccc(I)cc2F)c1NS(=O)(=O)C1(C[C@H](O)CO)CC1 [RDEA119]
The conditions noted are these: top dose 5 µM, top dose inferred. How it is done: as §1

Compound in a further assay: CC(C)(C)c1cc(NC(=O)Nc2ccc(-c3cn4c(n3)sc3cc(OCCN5CCOCC5)ccc34)cc2)no1 [AC220]
The settings on record: top dose 1.024 µM; top dose inferred. How it is done:
as §1

Compound in another assay: OC[C@H](Cc1ccccc1)Nc1nc(Oc2ccc3c(c2)CCC3)nc2c1ncn2Cc1ccc(-c2ccccc2)cc1 [QS11]
The conditions noted are these: top dose 10.24 µM. How it is done:
as §1

Take 8505C (thyroid, adherent): the AUC in the assay with CUDC-101 worked out at 0.529; with OSU-03012 it was 0.586; with JNK-9L, 0.595; with 5-Fluorouracil, 0.756; in the assay with RDEA119 (screen: GDSC drug entry 1014), 0.766; with AC220 it was 0.981. Also, the IC50 with CUDC-101 is 385 nM; in the assay with OSU-03012 it was 1740 nM; in the assay with JNK-9L, 593 nM; in the assay with 5-Fluorouracil, 11600 nM; with RDEA119 (screen: GDSC drug entry 1014), 1950 nM; in the assay with AC220 it was > 1020 nM.

As to COLO-800 (melanoma, adherent), the AUC turned out to be 0.938 with CUDC-101; 0.821 with OSU-03012; 0.757 in the assay with 5-Fluorouracil; 0.96 with RDEA119 (screen: GDSC drug entry 1014); 0.961 in the assay with RDEA119 (screen: GDSC drug entry 1526); 0.975 with AC220. Also, the AUC in the assay with QS11 is 0.987. Also, the IC50 with CUDC-101 was > 5120 nM; in the assay with OSU-03012, 8900 nM; in the assay with 5-Fluorouracil, 10700 nM; with RDEA119 (screen: GDSC drug entry 1014), > 5000 nM; with RDEA119 (screen: GDSC drug entry 1526), > 5000 nM; in the assay with AC220 it was > 1020 nM. In the assay with QS11, the IC50 is > 10200 nM.

For the cell line D-247MG (glioma, adherent), the AUC came to 0.52 with CUDC-101; 0.775 with JNK-9L; 0.963 in the assay with 5-Fluorouracil; 0.795 with RDEA119 (screen: GDSC drug entry 1014); 0.797 in the assay with RDEA119 (screen: GDSC drug entry 1526); 0.848 with AC220. The IC50 in the assay with CUDC-101 is 369 nM; with JNK-9L, 2810 nM; in the assay with 5-Fluorouracil it was > 32000 nM; in the assay with RDEA119 (screen: GDSC drug entry 1014), 3360 nM; with RDEA119 (screen: GDSC drug entry 1526), 3400 nM; in the assay with AC220, > 1020 nM.

On to D-336MG (glioma, adherent), for which the AUC was determined as 0.717 with JNK-9L, 0.97 with 5-Fluorouracil, 0.824 in the assay with RDEA119 (screen: GDSC drug entry 1526) and 0.972 with AC220. The IC50 in the assay with JNK-9L is 1600 nM; with 5-Fluorouracil, > 32000 nM; with RDEA119 (screen: GDSC drug entry 1526) it was 4190 nM; with AC220 it was > 1020 nM.

For the cell line “EoL-1-cell (haematopoietic neoplasm, suspension)”, the AUC worked out at 0.223 with CUDC-101; 0.602 in the assay with OSU-03012; 0.513 with JNK-9L; 0.418 in the assay with 5-Fluorouracil; 0.511 in the assay with RDEA119 (screen: GDSC drug entry 1014); 0.64 in the assay with RDEA119 (screen: GDSC drug entry 1526). Besides, the AUC with QS11 was determined as 0.675. Also, the IC50 in the assay with CUDC-101 was 56.3 nM; with OSU-03012, 1830 nM; with JNK-9L, 347 nM; in the assay with 5-Fluorouracil it was 1220 nM; with RDEA119 (screen: GDSC drug entry 1014) it was 334 nM; with RDEA119 (screen: GDSC drug entry 1526) it was 724 nM. Also, the IC50 with QS11 was determined as 1840 nM.

With HCC202 (breast, adherent), the AUC in the assay with CUDC-101 came out at 0.447; with OSU-03012, 0.727; in the assay with 5-Fluorouracil, 0.891; in the assay with RDEA119 (screen: GDSC drug entry 1014), 0.979; with RDEA119 (screen: GDSC drug entry 1526) it was 0.968; with QS11 it was 0.962. For the same cell line, the IC50 was 217 nM with CUDC-101; 5830 nM in the assay with OSU-03012; > 32000 nM with 5-Fluorouracil; > 5000 nM with RDEA119 (screen: GDSC drug entry 1014); > 5000 nM with RDEA119 (screen: GDSC drug entry 1526); > 10200 nM in the assay with QS11.

Take “HOP-92 (large cell lung carcinoma, adherent)”: the AUC with CUDC-101 worked out at 0.821; with JNK-9L it was 0.786; in the assay with 5-Fluorouracil, 0.981; with RDEA119 (screen: GDSC drug entry 1526), 0.728; with AC220, 0.984; in the assay with QS11, 0.961. Also, the IC50 is 3580 nM in the assay with CUDC-101; 2590 nM with JNK-9L; > 32000 nM with 5-Fluorouracil; 1560 nM with RDEA119 (screen: GDSC drug entry 1526); > 1020 nM with AC220; > 10200 nM in the assay with QS11.

Consider Hs746T (stomach, adherent), for which the AUC was determined as 0.476 with CUDC-101; 0.939 in the assay with JNK-9L; 0.906 in the assay with 5-Fluorouracil; 0.807 with RDEA119 (screen: GDSC drug entry 1014); 0.853 in the assay with RDEA119 (screen: GDSC drug entry 1526); 0.98 with AC220. In addition, the IC50 is 269 nM in the assay with CUDC-101; > 5120 nM with JNK-9L; > 32000 nM with 5-Fluorouracil; 3740 nM with RDEA119 (screen: GDSC drug entry 1014); > 5000 nM with RDEA119 (screen: GDSC drug entry 1526); > 1020 nM with AC220.

In the case of IGR-37 (melanoma, adherent), the AUC amounted to 0.423 with CUDC-101; 0.537 in the assay with JNK-9L; 0.987 with 5-Fluorouracil; 0.125 with RDEA119 (screen: GDSC drug entry 1014); 0.147 with RDEA119 (screen: GDSC drug entry 1526); 0.989 with AC220. Besides, the AUC with QS11 came out at 0.824. In addition, the IC50 in the assay with CUDC-101 is 202 nM; in the assay with JNK-9L it was 400 nM; in the assay with 5-Fluorouracil it was > 32000 nM; with RDEA119 (screen: GDSC drug entry 1014), 23.4 nM; with RDEA119 (screen: GDSC drug entry 1526), 29 nM; with AC220, > 1020 nM. The IC50 in the assay with QS11 came to 5380 nM.

Turning to KMRC-20 (kidney, adherent), the AUC turned out to be 0.987 with CUDC-101; 0.761 with OSU-03012; 0.863 with JNK-9L; 0.976 in the assay with 5-Fluorouracil; 0.878 in the assay with RDEA119 (screen: GDSC drug entry 1014); 0.93 with RDEA119 (screen: GDSC drug entry 1526). Also, the AUC with AC220 amounted to 0.989. Further, the IC50 with CUDC-101 is > 5120 nM; with OSU-03012, 5750 nM; with JNK-9L, 4560 nM; with 5-Fluorouracil, > 32000 nM; with RDEA119 (screen: GDSC drug entry 1014), > 5000 nM; in the assay with RDEA119 (screen: GDSC drug entry 1526), > 5000 nM. In addition, the IC50 in the assay with AC220 is > 1020 nM.

Usually IC50 stands for the concentration that gives 50% inhibition.

The values above are taken from the supplement of paper PMC4967469.
